# Measurements taken from PubChem BioAssay AID624296 (National Center for Advancing Translational Sciences (NCATS), 2012).
# Hit rate of the full screen: of about 350,000 compounds, about 9,900 (2.8%) were called active. The shares of active, inactive and inconclusive entries below differ from those in the screen. Calls come from the whole dose curve; as a rule, active = well fitted activation curve with a large enough effect; inconclusive = small, poorly fitted or top-dose-only effect; inactive = no such curve, though single readings can be large or run the other way. No potency is given beside an inconclusive call; the fits are too rough.
# Experiment: A quantitative high throughput screen for small molecules that induce DNA re-replication in MCF 10a normal breast cells. For activity, positive = re-replication: % of control where 0% means no effect. Note: nearly all actives have a fitted effect of over 50% in size.
# Conditions: MCF 10A DNA re-replication, Hoechst nuclear intensity, 48 h; activity, positive = re-replication: at 46.1 µM (top of the series)
# Potency is the fitted concentration of half-maximal effect; tags give direction and shape of the fitted curve.
Compound,"activity, positive = re-replication",Potency
COC(=O)c1ccc(CN2C(=O)NC(CC(C)C)C2=O)cc1 (centres undefined),inactive: 0.0169%,
Cc1nc2ccccc2cc1OCc1ccccc1,inactive: 10.7%,
COC(=O)c1ccc(SCC(=O)NC2CCCC2)c([N+](=O)[O-])c1,,"inconclusive [activator, partial curve, poor fit]"
O=C(CSc1ccccc1C(=O)O)Nc1ccc2c(c1)OCO2,,"inconclusive [activator, partial curve, poor fit]"
Cc1ccc(OCC(=O)N(C)CC(=O)Nc2ccc(F)cc2)c([N+](=O)[O-])n1,inactive: -4.15%,
Cc1cc(C)n2nc(SC(C)C(=O)N(C)C3CCCCC3)nc2n1 (centres undefined),inactive: -0.211%,
Cn1c(=O)c2c(ncn2CC(=O)Nc2nc(-c3ccc(F)c(F)c3)cs2)n(C)c1=O,,"inconclusive [activator, single point]"
CCN(C(=O)COC(=O)c1cc(NS(=O)(=O)c2ccc(Cl)c([N+](=O)[O-])c2)ccc1O)C1CCCCC1,,"inconclusive [activator, partial curve]"
Cc1nn(CC(=O)NNC(=S)NCC2CCCO2)c(C)c1Br (centres undefined),inactive: 6.87%,
Cc1ccc(C(=O)Nc2cccc([N+](=O)[O-])c2)cc1S(=O)(=O)Nc1ccc(NC(=O)c2ccccc2)cc1,inactive: 4.71%,
CC(=O)N1CCN(c2ccc(NC(=O)c3ccc(C(C)(C)C)cc3)cc2)CC1,inactive: 3.83%,
C=CCOC(=O)COc1ccc2c(C)c(C)c(=O)oc2c1C,inactive: -0.866%,
COc1ccc(-c2ccnc3c(Br)c(C)nn23)cc1,,"inconclusive [activator, single point]"
CCOC(=O)N1CCN(CCC(=O)c2ccc(Cl)cc2)CC1,,"inconclusive [activator, single point]"
Cc1cc(OC(C)C(=O)NNC(=O)Nc2ccc(F)cc2F)cc(C)c1Cl (centres undefined),,"inconclusive [activator, single point]"
CCc1nc(Nc2ccc(OC)cc2OC)c2oc3ccccc3c2n1,,"inconclusive [activator, partial curve]"
CCOc1ncccc1C(=O)Nc1nc(C(C)(C)C)cs1,,"inconclusive [activator, single point]"
COc1ccc(F)c(CN2CCC(CO)(Cc3cccc(C(F)(F)F)c3)CC2)c1,,"inconclusive [activator, single point]"
Cc1ccnc(N2CCN(C(=O)CSc3nc4ccccc4nc3N3CCC(C)CC3)CC2)c1,,"inconclusive [activator, single point]"
CCc1ccccc1NC(=O)CN(C)C(=O)c1cc(C2CC2)nc2c1cnn2C(C)C,,"inconclusive [activator, single point]"
CCCCc1c(C)c(C#N)c2nc3ccccc3n2c1Nc1c(C)n(C)n(-c2ccccc2)c1=O,,"inconclusive [activator, single point]"
Nc1nc(N2CCN(C(c3ccccc3)c3ccccc3)CC2)n[nH]1,,"inconclusive [activator, partial curve, poor fit]"
Cc1ccc(S(=O)(=O)CC(=O)Nc2sc(C)c(C)c2C(N)=O)cc1,,"inconclusive [activator, full curve, poor fit]"

Compound,"activity, positive = re-replication",Potency
O=C(NCc1ccccc1)C(c1ccco1)N(C(=O)c1ccccn1)c1ccc(F)cc1 (centres undefined),inactive: -1.39%,
COc1ccc(OC)c(C2=NOC(C(=O)NCc3cccs3)C2)c1 (centres undefined),,"inconclusive [activator, single point]"
CCCC(=O)Nc1ccc(S(=O)(=O)Nc2cc(C)nc(C)n2)cc1,,"inconclusive [activator, single point]"
CN(C)/C=C1/OC(=O)C(C#N)=C1c1ccc(Cl)cc1,,active: 18.4 µM
Cc1ccc2nc(C)cc(N/N=C/c3cccnc3)c2c1,inactive: -0.861%,
CS(=O)(=O)N(CC(=O)Nc1c(F)cccc1F)c1ccc(C23CC4CC(CC(C4)C2)C3)cc1,inactive: 2.02%,
N=c1n(CC(=O)O)c2ccccc2n1Cc1ccccc1Cl,inactive: 0.186%,
CCNC(=S)N(Cc1ccco1)Cc1cc2cc(OCC)ccc2[nH]c1=O,,"inconclusive [activator, partial curve, poor fit]"
COc1ccc(-c2cc3c(=O)n(CC(=O)Nc4cccc(Cl)c4)nc(C)n3n2)cc1,,"inconclusive [activator, full curve]"
O=C(NCC1CCCO1)c1ccc2c(=O)n(Cc3cccc(Br)c3)c(=S)[nH]c2c1 (centres undefined),,"inconclusive [activator, single point]"
Cc1cc(C)c(S(=O)(=O)n2ccc(-c3ccc(OCCN(C)c4ccccn4)cc3)n2)c(C)c1,,"inconclusive [activator, single point]"
CNC(=O)CC1C(=O)N(c2ccc(Cl)cc2)C(=S)N1CCc1ccc(OC)c(OC)c1 (centres undefined),,"inconclusive [activator, single point]"
O=C(N=Nc1c(O)[nH]c2ccccc12)Nc1ccccc1,inactive: -0.497%,
Cc1nn(Cc2ccc(Cl)cc2)c(C)c1NC(=O)c1cc(-c2ccco2)on1,,active: 23.1 µM
N#C/C(=C\c1cccs1)Sc1nc2ccccc2s1,,"inconclusive [activator, single point]"
CSc1ccccc1NC(=O)CN(Cc1ccc(Cl)cc1)S(C)(=O)=O,inactive: 2.45%,
O=C(COC(=O)c1cc(-c2cccc(Br)c2)nc2ccccc12)NCC1CCCO1 (centres undefined),,"inconclusive [activator, single point]"
Cc1ccc(-n2c(Cc3ccccc3)nnc2SCC(=O)NNC(=O)Cc2ccccc2)cc1,inactive: 20.8%,
CCN(CC(=O)NCc1cccs1)C(=O)c1ccc(-c2cccc(C(F)(F)F)c2)o1,,"inconclusive [activator, single point]"
CCc1ccc(/C=N/NC(=S)NCCc2ccccc2)cc1,inactive: 21.5%,
Cc1ccc2oc(=S)n(C)c2c1,inactive: -7.22%,
COc1cc(/C=N/NC(=Nc2ccc(C)cc2)c2nc3ccccc3s2)ccc1O,,"inconclusive [activator, full curve, poor fit]"
O=C(OCc1ccccc1)N1CCC2CC1c1cc(-c3ccc(F)cc3)ccc12 (centres undefined),,"inconclusive [activator, single point]"

Compound,"activity, positive = re-replication",Potency
O=C(c1cccc(NS(=O)(=O)c2ccccc2)c1)N1CCCCC1,inactive: -0.0855%,
Cc1nnc(NC(=O)c2cccc(S(=O)(=O)N3CCOCC3)c2)s1,,"inconclusive [activator, single point]"
COc1ccc(-c2noc(C3CCCN(S(=O)(=O)c4cccc(Cl)c4C)C3)n2)cc1OC (centres undefined),,"inconclusive [activator, partial curve, poor fit]"
CSc1ccccc1NC(=O)Nc1ccccc1Cl,,"inconclusive [activator, single point]"
O=C(c1cccc(Cl)c1)N1CCC2CC1c1cc(-c3ccccc3)ccc12 (centres undefined),,"inconclusive [activator, single point]"
O=C(CCl)Nc1cc(SCC(O)CO)cc([N+](=O)[O-])c1 (centres undefined),,"inconclusive [activator, full curve]"
Cc1cccc(C=CC(=O)c2ccccc2)c1,,"inconclusive [activator, single point]"
O=C1CN(C(=O)COC(=O)c2ccc([N+](=O)[O-])o2)c2ccccc2N1,,"inconclusive [activator, partial curve]"
COc1ccc([C@@H]2CC=C(C(=O)O)[C@H](c3ccccc3F)N2S(=O)(=O)c2ccc(C)cc2)cc1OC,,"inconclusive [activator, partial curve, poor fit]"
COc1ccc(Sc2ccc(/C=C3\C(=O)NN(c4ccccc4)C3=O)o2)cc1,,"inconclusive [activator, single point]"
C=CCn1c(=O)[nH]c2cc(C(=O)N3CC=C(c4ccccc4)CC3)ccc2c1=O,,"inconclusive [activator, single point]"
CCOc1c(Cl)cc(/C=C/C(=O)N(CC)CC(=O)Nc2ccc(NC(C)=O)cc2)cc1OC,,"inconclusive [activator, single point]"
COc1cccc(C(=O)CSc2nnc(-c3cc(OC)c(OC)c(OC)c3)o2)c1,inactive: 0.537%,
COC(=O)c1ccc(CN2CCCC(C(=O)c3cc(F)ccc3OC)C2)cc1 (centres undefined),,"inconclusive [activator, full curve, poor fit]"
Cc1cc(C(=O)O)cc(S(=O)(=O)Nc2c(C)nn(C)c2C)c1C,inactive: 1.11%,
COc1ccc2cc3cc(C(=O)NCCN4CCN(c5ccccc5F)CC4)oc3nc2c1,,"inconclusive [activator, single point]"
Cc1ccc(-n2nnnc2CCl)cc1,,"inconclusive [activator, single point]"
c1ccc(Nc2cccc(Nc3ccccc3)c2)cc1,,"inconclusive [activator, partial curve, poor fit]"
CCC(C)Sc1ccc([C@@H]2[C@H]3C(=O)N(CC)C(=O)[C@H]3[C@]3(C(=O)OC)CCCCN23)cc1 (some centres undefined),inactive: 8.39%,
CCOC(=O)/C(=C/C=C1\Sc2ccccc2N1CC)C(C)=O,inactive: 16.7%,
C[C@]12CC[C@@H]3c4ccc(O)cc4CC[C@H]3[C@@H]1CC[C@@H]2OC(=O)CCC1CCCC1,inactive: -11.1%,
Nc1nc(-c2cccnc2)nn1S(=O)(=O)c1ccccc1,,"inconclusive [activator, partial curve, poor fit]"
CCCC(C(=O)NC1CCCC1)N(Cc1ccccc1Cl)C(=O)c1snc(C(N)=O)c1N (centres undefined),,"inconclusive [activator, single point]"
